In US20210324028A1 (Pfizer, published 2021):
Read-outs that look alike come from different tables or passages of the source. Values belong to the binder of their own block, whether it stands above or below them.

Experiments:
human IL-15Rα [1] = molecular target: T1, human IL-15Rα (human, UniProt Q13261 31-205, limits assumed); experiment: SPR, steady state, fusion captured
T1 construct: also called hIL-15Rα; IL-15 receptor alpha
Protocol: (§1) Anti-human Fc sensor chips were prepared at 25° C. with a running buffer of 10 mM HEPES, 150 mM NaCl, 0.05% (v/v) Tween-20, pH 7.4. All surfaces of a Biacore CM4 sensor chip were activated with a 1:1 (v/v) mixture of 400 mM EDC and 100 mM NHS for 7 minutes, at a flow rate of 10 μL/min. An anti-human Fc reagent (Goat anti-human IgG Fc-γ specific, SouthernBiotech, Birmingham, Ala., Catalog #2014-01) was diluted to 50 μg/mL in 10 mM sodium acetate (pH 4.5) and injected on all flow cells for 7 minutes at 20 μL/min. All flow cells were blocked with 100 mM ethylenediamine in 200 mM Borate buffer pH 8.5 for 7 minutes at 10 μL/min.
(§2) All protein interaction experiments were performed at 37° C. using a running buffer of 10 mM HEPES, 150 mM NaCl, 0.05% (v/v) Tween-20, pH 7.4, 1 mg/mL BSA. Anti-PD-1-hIL-15 fusion proteins were captured at 10 μg/mL at a flow rate of 10 μL/min for 2 minutes. Different fusion proteins were captured in flow cells 2, 3 and 4. No protein was captured onto flow cell 1 which was used as a reference surface. […] After each analyte injection, dissociation was monitored for 5 minutes followed by regeneration of all flow cells with three 60-second injections of 75 mM phosphoric acid. […] For kinetic analysis, the double-referenced sensorgrams were fit globally to a simple 1:1 Langmuir with mass transport binding model using Biacore T200 Evaluation Software version 2.0. For steady-state affinity analysis, the double-referenced equilibrium binding responses were fit with a 1:1 Langmuir steady-state model using Biacore T200 Evaluation Software version 2.0.

human IL-2Rβ = molecular target: T2, human IL-2Rβ (human, UniProt P14784 27-240, limits assumed); experiment: SPR, steady state, fusion captured
T2 construct: also called hIL-2Rβ; IL-2 receptor beta
T2 sequence (looked up): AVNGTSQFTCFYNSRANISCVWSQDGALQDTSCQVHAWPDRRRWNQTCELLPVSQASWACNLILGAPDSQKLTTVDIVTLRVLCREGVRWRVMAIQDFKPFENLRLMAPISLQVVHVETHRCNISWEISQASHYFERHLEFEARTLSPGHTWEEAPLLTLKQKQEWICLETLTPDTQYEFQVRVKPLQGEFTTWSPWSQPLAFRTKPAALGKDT
Protocol: as §1, §2

[2] = molecular target: T3, mouse PD-1 on doxycycline-induced 32D[pRF770+pRF791] cells (mouse, UniProt Q02242 25-288); experiment: cell-based or functional assay
T3 sequence (looked up): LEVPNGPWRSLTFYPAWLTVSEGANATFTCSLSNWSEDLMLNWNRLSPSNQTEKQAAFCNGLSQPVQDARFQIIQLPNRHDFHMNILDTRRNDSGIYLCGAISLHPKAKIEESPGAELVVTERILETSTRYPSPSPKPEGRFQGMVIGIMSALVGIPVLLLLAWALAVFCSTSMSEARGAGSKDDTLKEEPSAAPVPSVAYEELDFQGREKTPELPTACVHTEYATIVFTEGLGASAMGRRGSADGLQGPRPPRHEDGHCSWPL

[3] = molecular target: T4, IL-15 signaling receptor on 32D[pRF770+pRF791] cells (human CD122 plus mouse CD132) (human; mouse, UniProt P14784 27-551; P34902 23-369); experiment: cell-based or functional assay
T4 sequence (looked up) 1: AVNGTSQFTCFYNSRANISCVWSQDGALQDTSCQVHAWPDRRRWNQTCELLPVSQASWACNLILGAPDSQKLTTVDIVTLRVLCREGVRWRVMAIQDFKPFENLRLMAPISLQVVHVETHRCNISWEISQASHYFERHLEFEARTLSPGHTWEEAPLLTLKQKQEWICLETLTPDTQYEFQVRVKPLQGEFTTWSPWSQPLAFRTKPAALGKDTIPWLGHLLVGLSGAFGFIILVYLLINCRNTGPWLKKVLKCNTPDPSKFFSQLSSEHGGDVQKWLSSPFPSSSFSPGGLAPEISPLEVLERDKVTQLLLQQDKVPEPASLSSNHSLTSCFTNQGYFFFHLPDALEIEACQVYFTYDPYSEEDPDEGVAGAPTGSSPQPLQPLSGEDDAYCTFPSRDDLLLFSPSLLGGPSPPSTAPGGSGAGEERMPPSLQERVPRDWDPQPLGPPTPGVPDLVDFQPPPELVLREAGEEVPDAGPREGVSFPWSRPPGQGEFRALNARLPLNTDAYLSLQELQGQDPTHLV
T4 sequence (looked up) 2: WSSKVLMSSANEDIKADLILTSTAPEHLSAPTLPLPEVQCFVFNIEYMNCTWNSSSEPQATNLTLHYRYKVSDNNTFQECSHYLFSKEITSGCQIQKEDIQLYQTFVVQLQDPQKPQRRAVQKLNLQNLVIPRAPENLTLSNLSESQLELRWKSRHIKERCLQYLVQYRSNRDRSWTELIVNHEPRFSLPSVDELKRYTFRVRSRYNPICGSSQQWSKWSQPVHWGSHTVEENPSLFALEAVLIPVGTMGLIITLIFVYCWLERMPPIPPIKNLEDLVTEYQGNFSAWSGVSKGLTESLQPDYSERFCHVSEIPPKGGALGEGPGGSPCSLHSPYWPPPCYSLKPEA

[4] = molecular target: T3, mouse PD-1 on doxycycline-induced …; experiment: cell-based or functional assay; remark: listed apart in the source
[5] = molecular target: T4, IL-15 signaling receptor on …; experiment: cell-based or functional assay; remark: listed apart in the source
[6] = molecular target: T3, mouse PD-1 on doxycycline-induced …; experiment: cell-based or functional assay; remark: listed apart in the source
[7] = molecular target: T4, IL-15 signaling receptor on …; experiment: cell-based or functional assay; remark: listed apart in the source
human IL-15Rα [8] = molecular target: T1, human IL-15Rα; experiment: SPR, fusion captured
T1 sequence (Q13261 31-205 limits assumed): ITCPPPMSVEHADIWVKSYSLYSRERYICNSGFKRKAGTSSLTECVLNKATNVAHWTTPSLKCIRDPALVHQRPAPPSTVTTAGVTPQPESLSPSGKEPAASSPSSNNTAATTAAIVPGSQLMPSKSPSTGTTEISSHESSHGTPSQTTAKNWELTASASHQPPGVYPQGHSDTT
Protocol: as §1
as §2, with “For steady-state affinity analysis, the double-referenced equilibrium binding responses were fit with a 1:1 Langmuir steady-state model using Biacore T200 Evaluation Software version 2.0.” left out

Kd (human IL-15Rα [1]): 119 nM
Kd (human IL-2Rβ): 494 nM
Fold change = EC50 (PD-1(low))/EC50 (PD-1+) [2]: 5.89 fold
pSTAT5 EC50 on PD-1+ 32D reporter cells [2]: 0.0557 nM
pSTAT5 EC50 on PD-1(low) 32D reporter cells [3]: 0.328 nM
Fold change = EC50 (PD-1(low))/EC50 (PD-1+) [4]: 26.8 fold
pSTAT5 EC50 on PD-1+ 32D reporter cells [4]: 0.163 nM
pSTAT5 EC50 on PD-1(low) 32D reporter cells [5]: 4.38 nM
Fold change = EC50 (PD-1(low))/EC50 (PD-1+) [6]: 27.6 fold
pSTAT5 EC50 on PD-1+ 32D reporter cells [6]: 0.0548 nM
pSTAT5 EC50 on PD-1(low) 32D reporter cells [7]: 1.51 nM
B1: xmPD-1-hIL15 V49R (other)
heavy 1: HHHHHHHHGGGGSGSGGEVQLVESGGGLVKPGGSLELSCAASGFTFSSYWMSWVRQAPEKGLEWVAAISPSGGSTYYADSVKGRFTISRDNAKNTLFLQMTSLRSEDTAMYYCAKESWGAYYDLWGQGTTVTVSSASTKGPSVFPLAPCSRSTSESTAALGCLVKDYFPEPVTVSWNSGALTSGVHTFPAVLQSSGLYSLSSVVTVPSSNFGTQTYTCNVDHKPSNTKVDKTVERKCRVRCPRCPAPPVAGPSVFLFPPKPKDTLMISRTPEVTCVVVAVSHEDPEVQFNWYVDGVEVHNAKTKPREEQFNSTFRVVSVLTVVHQDWLNGKEYKCKVSNKGLPSSIEKTISKTKGQPREPQVYTLPPSREEMTKNQVSLTCLVKGFYPSDIAVEWESNGQPENNYKTTPPMLDSDGSFFLYSRLTVDKSRWQQGNVFSCSVMHEALHNHYTQKSLSLSPGK
heavy 2: EVQLVESGGGLVKPGGSLELSCAASGFTFSSYWMSWVRQAPEKGLEWVAAISPSGGSTYYADSVKGRFTISRDNAKNTLFLQMTSLRSEDTAMYYCAKESWGAYYDLWGQGTTVTVSSASTKGPSVFPLAPCSRSTSESTAALGCLVKDYFPEPVTVSWNSGALTSGVHTFPAVLQSSGLYSLSSVVTVPSSNFGTQTYTCNVDHKPSNTKVDKTVERKCEVECPECPAPPVAGPSVFLFPPKPKDTLMISRTPEVTCVVVAVSHEDPEVQFNWYVDGVEVHNAKTKPREEQFNSTFRVVSVLTVVHQDWLNGKEYKCKVSNKGLPSSIEKTISKTKGQPREPQVYTLPPSREEMTKNQVSLTCEVKGFYPSDIAVEWESNGQPENNYKTTPPMLDSDGSFFLYSKLTVDKSRWQQGNVFSCSVMHEALHNHYTQKSLSLSPGKGGGGRTSATATPGA[about 120 residues left out here]
light: DIVMTQSPSSLSVSAGDKVTMSCRASQGISSWLAWYQQKPWQPPKLLIYKASTLESGVPDRFTGSGSGTDFTLTISSVQAEDLAVYYCQQSYSTPWTFGGGTKLEIKGTVAAPSVFIFPPSDEQLKSGTASVVCLLNNFYPREAKVQWKVDNALQSGNSQESVTEQDSKDSTYSLSSTLTLSKADYEKHKVYACEVTHQGLSSPVTKSFNRGEC
notes: not restated for this mutant; also called xmPD-1-hIL-15V49R fusion; xmPD-IL15 V49R

Kd (human IL-15Rα [1]): 943 nM
Kd (human IL-2Rβ): 451 nM
B2: xmPD-1-hIL15 V49R/E93Q (other)
heavy 1: B1 heavy 1
heavy 2: EVQLVESGGGLVKPGGSLELSCAASGFTFSSYWMSWVRQAPEKGLEWVAAISPSGGSTYYADSVKGRFTISRDNAKNTLFLQMTSLRSEDTAMYYCAKESWGAYYDLWGQGTTVTVSSASTKGPSVFPLAPCSRSTSESTAALGCLVKDYFPEPVTVSWNSGALTSGVHTFPAVLQSSGLYSLSSVVTVPSSNFGTQTYTCNVDHKPSNTKVDKTVERKCEVECPECPAPPVAGPSVFLFPPKPKDTLMISRTPEVTCVVVAVSHEDPEVQFNWYVDGVEVHNAKTKPREEQFNSTFRVVSVLTVVHQDWLNGKEYKCKVSNKGLPSSIEKTISKTKGQPREPQVYTLPPSREEMTKNQVSLTCEVKGFYPSDIAVEWESNGQPENNYKTTPPMLDSDGSFFLYSKLTVDKSRWQQGNVFSCSVMHEALHNHYTQKSLSLSPGSGGGGGTSATATPGA[about 120 residues with changes left out here]
light: B1 light
notes: not restated for this mutant

Kd (human IL-2Rβ): 590 nM
Kd (human IL-15Rα [8]): > 1500 nM
B3: xmPD-1-hIL15 V49R/E53Q (other)
heavy 1: B1 heavy 1
heavy 2: EVQLVESGGGLVKPGGSLELSCAASGFTFSSYWMSWVRQAPEKGLEWVAAISPSGGSTYYADSVKGRFTISRDNAKNTLFLQMTSLRSEDTAMYYCAKESWGAYYDLWGQGTTVTVSSASTKGPSVFPLAPCSRSTSESTAALGCLVKDYFPEPVTVSWNSGALTSGVHTFPAVLQSSGLYSLSSVVTVPSSNFGTQTYTCNVDHKPSNTKVDKTVERKCEVECPECPAPPVAGPSVFLFPPKPKDTLMISRTPEVTCVVVAVSHEDPEVQFNWYVDGVEVHNAKTKPREEQFNSTFRVVSVLTVVHQDWLNGKEYKCKVSNKGLPSSIEKTISKTKGQPREPQVYTLPPSREEMTKNQVSLTCEVKGFYPSDIAVEWESNGQPENNYKTTPPMLDSDGSFFLYSKLTVDKSRWQQGNVFSCSVMHEALHNHYTQKSLSLSPGSGGGGGTSATATPGA[about 120 residues with changes left out here]
light: B1 light
notes: not restated for this mutant
